Source: article PMC4336329 (PLoS ONE, 2015)
The campaign covered roughly 310,000 compounds. About 2,200 (0.71%) showed an effect of 50% or more. The effect is printed as a negative number. This is one part of the list.

Target: human ether-à-go-go-related gene (hERG) potassium channel (human, UniProt Q12809)
Assay: primary screen, population patch clamp on CHO cells stably expressing hERG

Chain of human ether-à-go-go-related gene (hERG) potassium channel (Q12809 whole entry, looked up): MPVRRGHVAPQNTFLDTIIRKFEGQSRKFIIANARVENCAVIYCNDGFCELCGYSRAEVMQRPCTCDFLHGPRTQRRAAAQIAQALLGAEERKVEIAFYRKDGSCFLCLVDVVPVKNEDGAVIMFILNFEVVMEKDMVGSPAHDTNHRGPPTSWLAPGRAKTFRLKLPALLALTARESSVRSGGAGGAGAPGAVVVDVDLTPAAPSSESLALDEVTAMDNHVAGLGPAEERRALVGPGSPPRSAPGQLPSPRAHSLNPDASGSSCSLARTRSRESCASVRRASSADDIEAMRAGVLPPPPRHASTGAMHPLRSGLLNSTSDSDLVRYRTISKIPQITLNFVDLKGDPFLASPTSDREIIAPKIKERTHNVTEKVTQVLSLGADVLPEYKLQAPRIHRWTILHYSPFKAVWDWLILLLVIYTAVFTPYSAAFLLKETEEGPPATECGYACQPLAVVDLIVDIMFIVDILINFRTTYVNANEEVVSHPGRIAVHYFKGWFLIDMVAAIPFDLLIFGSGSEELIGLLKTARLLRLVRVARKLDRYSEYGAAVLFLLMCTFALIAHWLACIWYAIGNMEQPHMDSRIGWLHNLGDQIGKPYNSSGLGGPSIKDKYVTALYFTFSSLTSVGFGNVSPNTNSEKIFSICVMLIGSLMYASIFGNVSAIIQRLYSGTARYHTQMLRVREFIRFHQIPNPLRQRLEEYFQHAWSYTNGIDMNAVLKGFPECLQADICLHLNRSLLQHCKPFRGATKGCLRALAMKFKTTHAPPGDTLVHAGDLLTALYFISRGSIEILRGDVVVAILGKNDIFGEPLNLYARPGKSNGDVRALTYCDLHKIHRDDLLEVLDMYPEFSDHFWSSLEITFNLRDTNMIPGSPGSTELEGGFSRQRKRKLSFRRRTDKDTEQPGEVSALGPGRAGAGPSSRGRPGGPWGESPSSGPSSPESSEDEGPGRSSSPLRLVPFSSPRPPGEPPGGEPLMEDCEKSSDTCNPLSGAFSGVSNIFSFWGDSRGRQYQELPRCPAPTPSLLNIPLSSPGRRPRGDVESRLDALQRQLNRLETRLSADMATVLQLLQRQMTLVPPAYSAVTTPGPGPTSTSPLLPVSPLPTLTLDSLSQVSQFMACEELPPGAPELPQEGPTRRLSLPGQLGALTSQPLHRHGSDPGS

Row | SMILES | hERG current change (%, negative = inhibition) at 1uM [%]
1 | CCc1nonc1NC(=O)COc1ccc(Cl)c(C)c1 | 15
2 | O=C1CCCN1CCNC(=S)Nc1ccccc1 | 0.761
3 | O=Cc1ccc(OC2OCCOC2Oc2ccc(C=O)cc2)cc1 (stereo not shown) | -39.7
4 | O=C(/C=C/c1ccc(Cl)cc1Cl)Nc1ccc(CN2CCOCC2)cc1 | -5.18
5 | COc1cccc(C(=O)Nc2ccc(N3CCN(C(=O)c4cccs4)CC3)cc2)c1 | 13.1
6 | COc1ccccc1OCC(=O)N/N=C1\CCCCc2ccccc21 | 2.11
7 | CCc1ccc(NC(=O)C2CCN(S(=O)(=O)c3ccc4c(c3)N(C(C)=O)CCO4)CC2)cc1 | 3.38
8 | CC(C)(C)NC(=O)CN(Cc1cccs1)C(=O)CCN1CCc2ccccc21 | 24
9 | COc1ccccc1N(Cc1ccccc1)S(=O)(=O)c1cccc(C(=O)Nc2ccc(C)cn2)c1 | 11.7
10 | O=C(CC1C=Cc2ccccc2N1C(=O)c1ccccc1)c1ccccc1 (stereo not shown) | 5.67
11 | CC(=O)Nc1ccc(S(=O)(=O)NNc2cccc(C)c2)cc1 | 15.2
12 | CCN(CC)S(=O)(=O)c1cccc(N=Nc2c(O)n(CC)c(=S)n(CC)c2=O)c1 | 3.49
13 | Cc1nc2sc(C(c3cccc(F)c3)N3CCCC(C)C3)c(O)n2n1 (stereo not shown) | 9.96
14 | CC(=O)NC1=NC(=O)C(C)S1 (stereo not shown) | 9.7
15 | Cc1cc(C)cc(OC(=O)CCN2C(=O)c3ccccc3C2=O)c1 | 12.5
16 | Cc1noc(C)c1C(=O)N1CCCC(C(=O)c2ccc(Cl)cc2)C1 (stereo not shown) | 5.61
17 | CCOc1ccccc1N(CC(=O)Nc1cccnc1)S(C)(=O)=O | 19.1
18 | CCCn1c(SCc2ccc(Cl)cc2)nc2c1c(=O)[nH]c(=O)n2C | 9.47
19 | O=C(NCc1ccccc1C(F)(F)F)C1CCC(=O)N(C2CCCCCC2)C1 (stereo not shown) | 10.2
20 | COc1cc(C2=NOC(C(=O)NCc3cccs3)C2)cc(OC)c1OC (stereo not shown) | 11.1
21 | Cc1cc(S(=O)(=O)N2CCN(c3ccccn3)CC2)c(C)cc1Cl | 6.32
22 | O=C(COC(=O)COc1ccccc1F)Nc1ccc2c(c1)OCO2 | 8.58

Row | SMILES | hERG current change (%, negative = inhibition) at 1uM [%]
23 | CCOC(=O)C1CCN(c2cc3c(cc2NC(=O)c2ccccc2)n(C)c(=O)n3C)CC1 | 22
24 | COc1ccc(NC(=O)Cn2nc(C(=O)O)c3ccccc3c2=O)cc1OC | 15.2
25 | CC1(C)Cc2ccccc2-c2nc3ccccc3c(=O)n21 | -4
26 | Cc1cccc(-n2nnnc2SCC(=O)c2cc(C)n(CC3CCCO3)c2C)c1 (stereo not shown) | -21.8
27 | COc1ccc(S(=O)(=O)N2CCCCC2)cc1NC(=O)C1COc2ccccc2O1 (stereo not shown) | -10
28 | O=C(Nc1ccc(-c2nc3ncccc3o2)cc1)c1ccco1 | 14.2
29 | Cc1ccc(N(C(C)C(=O)N2CCC(C)CC2)S(C)(=O)=O)cc1C (stereo not shown) | -1.43
30 | CCN1C=C(C(=O)OC)C(c2cccc(C)c2)C(C(=O)OC)=C1 | 7.98
31 | COc1ccc(Cl)cc1NS(=O)(=O)c1c(C)[nH]c(=O)[nH]c1=O | 7.11
32 | CC1(c2ccccc2Cl)NC(=O)N(CC(=O)c2ccc3c(c2)OCO3)C1=O (stereo not shown) | 11.2
33 | N#Cc1ccccc1Cn1cc(C(=O)C2CC2)c2ccccc21 | 16
34 | Cc1nc2c(ccc3nc(NC(=O)c4ccc(S(=O)(=O)N(C)C)cc4)sc32)s1 | 16.4
35 | COS(=O)(=O)[O-].C[N+]1(C)CCC(=C(c2ccccc2)c2ccccc2)CC1 | -33.9
36 | COc1ccc(N2CC(O)=C(c3n(C)c4ccccc4[n+]3C)C2=N)cc1.[Cl-] | 2.05
37 | O=C(c1ccc(Br)o1)N1CCN=C1SCc1cccc(F)c1 | 3.74
38 | Cc1ccc(S(=O)(=O)N2CCC(C(=O)N3CCCC(C(F)(F)F)C3)CC2)cc1C (stereo not shown) | 2.5
39 | CCOc1ccc(NC(=O)N(C2CCCCC2)C(C)c2ccncc2)cc1 (stereo not shown) | 8.14
40 | Cc1ccc(S(=O)(=O)N2CCOCC2)cc1C(=O)OCC(=O)NC1CCCC(C)C1C (stereo not shown) | 7.26
41 | CC(C)CCN(CC(=O)NC(C)(C)C)C(=O)C(=O)Nc1ccc2c(c1)OCCO2 | 3.27
42 | COc1cc(C2SCC(=O)N2CCc2ccc(OC)c(OC)c2)ccc1O (stereo not shown) | 10.1
43 | CC(C)c1ccc(/C=C/C(=O)NNC(=O)c2cccnc2)cc1 | -3.93
44 | O=C1NC(=S)NC(=O)C12C(c1ccccc1)NC(=S)NC2c1ccccc1 (stereo not shown) | 1.89

Row | SMILES | hERG current change (%, negative = inhibition) at 1uM [%]
45 | COC(=O)[C@@]1(Cc2ccccc2)[C@H]2c3cc(C(=O)N4CCCC4)n(Cc4ccsc4Br)c3C[C@H]2CN1C(=O)c1ccccc1 | 1.67
46 | CCn1cc(C(=O)OCc2cccc(Br)c2)c(=O)c2ccc(C)nc21 | 1.39
47 | CCCCCCOc1ccc(/C=C/C(=O)N2CCOCC2)cc1OC | 7.6
48 | CCOc1ccc(CCNC(=O)c2cc3c(s2)CS(=O)(=O)C3)cc1OCC | 29
49 | O=C(NC(=S)NCc1ccc2c(c1)OCO2)c1ccccc1 | 7.36
50 | O=[N+]([O-])c1ccc(N/N=C2/CCCCC2c2ccccn2)c([N+](=O)[O-])c1 (stereo not shown) | -9.21
51 | COc1ccc(/C=C/C(=O)N2CCOCC2)cc1OC | 15.4
52 | CCOC(=O)c1cnc2c(C)c(C)ccc2c1Nc1ccc(S(=O)(=O)Nc2ncccn2)cc1 | 0.471
53 | Cl.OCCN(CC#CC(O)(c1ccccc1)C1CCCCC1)CCO (stereo not shown) | 20.1
54 | Cc1cc(OCC(=O)OCC(=O)Nc2cc(C(F)(F)F)ccc2N2CCOCC2)ccc1Cl | 11.2
55 | CSCCC(=O)N1C(C)CCCC1C(=O)O (stereo not shown) | 15.1
56 | CCOC(=O)c1c(C)n(Cc2ccco2)c2ccc(O)cc12 | 5.71
57 | Cc1cccc(CC2CC(=O)N(c3ccc(C)cc3Br)C2=O)c1 (stereo not shown) | 16.5
58 | CN(C)c1ccc(CN(CC2CCCO2)C(=O)c2cccs2)cc1 (stereo not shown) | 2.93
59 | C[C@@]1([C@@H](NP(=O)(c2ccccc2)c2ccccc2)c2ccccc2)C[C@H]1CCO | 15.9
60 | COCC1CCCCN1C(=O)c1cc(COc2ccc3ncccc3c2)on1 (stereo not shown) | -16
61 | Cc1ccc2nc(SCC(=O)NC3CCCC3)nc(=O)n2c1 | -3.54
62 | O=C(NNc1ccc(-c2csnn2)cc1)c1ccccc1C(F)(F)F | 9.16
63 | O=C(CNCc1cccc2ccccc12)Nc1ccccc1[N+](=O)[O-] | 1.68
64 | COc1ccc(NC(=O)CN(C)C(=O)c2ccccc2OCC(=O)Nc2cccc(C(F)(F)F)c2)cc1 | -10.5
65 | O=C(CSc1nc2ccccc2o1)N/N=C/c1ccccc1 | 1.92
66 | O=C(O)CC(=O)Nc1ccccc1 | 16.8

Row | SMILES | hERG current change (%, negative = inhibition) at 1uM [%]
67 | CCOC(=O)C1=C(C)NC(C)=C(C(=O)OCC)C1c1cc(N)ccc1OC(F)F | 9.13
68 | COc1ccc(NC(=O)CCCC(=O)OCC(=O)c2cccc(OC)c2)cc1 | 15.9
69 | COc1ccc(CNC(=O)c2n[nH]c3ccccc23)cc1OC | 6.2
70 | CNC(=O)NC(=O)Cn1cnc2sc(-c3ccccc3)cc2c1=O | 8.43
71 | O=c1c2cc(F)ccc2[nH]c(=S)n1Cc1ccc(F)cc1 | 13.3
72 | CCN(CC)CCn1c(NCc2nc3ccccc3n2Cc2ccccc2)nc2ccccc21 | -8.2
73 | COc1ccc(OC)c(-c2csc(NC(=O)c3ccc4c(c3)OCO4)n2)c1 | -1.86
74 | COc1ccc2nc(Nc3ccccc3OC)sc2c1 | 12.2
75 | Cc1nn(CCc2n[nH]c(=S)n2C2CCCCC2)c(C)c1Br | 5.89
76 | CC(C)CC(C(=O)O)N1C(=O)C2C3c4ccccc4C(c4ccccc43)[C@@H]2C1=O (stereo partly shown) | 13.9
77 | Oc1cc(O)cc(-c2cc3ccc(O)cc3o2)c1 | 19.7
78 | CCN(CC)CCCOC(=O)C(OC(C)C)(c1ccccc1)c1ccccc1.Cl | -10.6
79 | O=C(NCCC1=CCCCC1)c1cc(S(=O)(=O)N2CCCCC2)ccc1Cl | 3.73
80 | COc1ccccc1Oc1coc2c(CN(C)C)c(O)ccc2c1=O | -0.221
81 | Cc1ccc(NNC(=O)c2cccs2)cc1Cl | 13
82 | Cn1c(=O)n(CC(=O)Nc2cccnc2)c2ccccc21 | 4.4
83 | CCCn1c(SCC(=O)Nc2ccc(Cl)cc2)n[nH]c1=O | 8.86
84 | NC(=O)c1cn(C2OC(CO)C(O)C2O)c2ncnc(N)c12.O (stereo not shown) | 5.08
85 | O=c1[nH]c(SCc2cccc(F)c2)nc2c1CCCC2 | 3.07
86 | Cc1ccc(NC(=O)NC(=O)c2cnccc2C(F)(F)F)c(C)c1 | -5
87 | CCSc1nnc(NC(=O)[C@@H](NC(=O)c2cc(OC)cc(OC)c2)C(C)C)s1 | 2.3
88 | CCOC(=O)C1CCCN(c2c(N3CCN(c4cccc(Cl)c4)CC3)c(=O)c2=O)C1 (stereo not shown) | -54.1
